Our source for the activity change, negative = inhibition values is PubChem BioAssay AID1745853 (National Center for Advancing Translational Sciences (NCATS), 2022).

Common to all, as to test: Primary Screen for Target Class Profiling of Small Molecule Inhibitors of Methyltransferases
Assay [1] has as its target Glycine N-methyltransferase (Homo sapiens) (UniProt Q14749). The note with it: purified enzyme, MTase-Glo SAH luminescence; measured here: GNMT inhibition; at 40 µM; stronger effect = lower value. In a few lines:
(§1)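 Each enzyme was reacted with SAM and its substrate, with compounds tested once at 40 uM; SAH formed was read by MTase-Glo luminescence.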

Assay [2] deals with Guanidinoacetate N-methyltransferase (Homo sapiens) (UniProt Q14353). The note with it: purified enzyme, MTase-Glo SAH luminescence; measured here: GAMT inhibition; at 40 µM; stronger effect = lower value. In a few lines:
as §1

The target in assay [3] is Histamine N-methyltransferase (Homo sapiens) (UniProt P50135). The settings on record: purified enzyme, MTase-Glo SAH luminescence; measured here: HNMT inhibition; at 40 µM; stronger effect = lower value. In a few lines:
as §1

Assay [4] deals with Nicotinamide N-methyltransferase (Homo sapiens) (UniProt P40261). The note with it: purified enzyme, MTase-Glo SAH luminescence; measured here: NNMT inhibition; at 40 µM; stronger effect = lower value. In a few lines:
as §1

Assay [5] deals with Phenylethanolamine N-methyltransferase (Homo sapiens) (UniProt P11086). The settings on record: purified enzyme, MTase-Glo SAH luminescence; measured here: PNMT inhibition; at 40 µM; stronger effect = lower value. Summed up:
as §1

Structures are written as SMILES. The list shows a part of the results. These are further read-outs of the screen, such as a control signal, another cell line or another target. No call is given for them.
On the % scale 0 is the no-effect control and ±100 the full control effect.

With `CC(=O)OCC(=O)[C@@]12O[C@@H]1C[C@H]1[C@@H]3CC=C4C[C@@H](O)CC[C@]4(C)[C@H]3CC[C@@]12C`, the activity change, negative = inhibition is -4.92% in assay [1]; -4.94% in assay [2]; 1.53% in assay [3]; -14.3% in assay [4]; -0.229% in assay [5].

Regarding `COc1ccc(CC(=O)N2C[C@@H]3C[C@H](C2)c2c(-c4ccc(NC(C)=O)cc4)ccc(=O)n2C3)cc1`, the activity change, negative = inhibition in assay [1] is -6.03%; in assay [2], -5.89%; in assay [3], -1.51%; in assay [4], -4.16%; in assay [5] it was -8.76%.

Turning to `CC(C)(O)/C=C/C(=O)[C@](C)(O)[C@H]1[C@H](O)C[C@@]2(C)[C@@H]3CC=C4[C@@H](C[C@H](O[C@@H]5O[C@H](CO)[C@@H](O)[C@H](O)[C@H]5O)C(=O)C4(C)C)[C@]3(C)C(=O)C[C@]12C`, the activity change, negative = inhibition in assay [1] was 4.1%; in assay [2] it was -0.337%; in assay [3], 4.71%; in assay [4], -6.82%; in assay [5] it was 3.7%.

As to `COc1ccccc1CN1C(=O)c2ccc(-c3ccco3)n2CC1(C)C(=O)NC1CCCCCCC1` (stereo not drawn), the activity change, negative = inhibition is -7.84% in assay [1]; 0% in assay [2]; -4.54% in assay [3]; -15.9% in assay [4]; -6.15% in assay [5].

For the compound `Cc1ccccc1CN1C(=O)c2cc(C(C)(C)C)nn2CC1(C)C(=O)NCc1ccccc1` (stereo not drawn), the activity change, negative = inhibition in assay [1] is 0.194%; in assay [2] it was 7.25%; in assay [3] it was -0.862%; in assay [4], -6.98%; in assay [5] it was -5.71%.

With `Cc1[nH]nc(C(F)(F)F)c1Cc1sc2c(c1C(=O)N1C[C@](C)(O)CO1)c(=O)n(C)c(=O)n2C(C)C`, the activity change, negative = inhibition in assay [1] is 4.26%; in assay [2] it was 6.39%; in assay [3] it was 4.93%; in assay [4], -8.31%; in assay [5], 5.6%.

As to `CCOc1ccc(CNC(=O)c2cc3n(n2)CC(C)(C(=O)NC2CCCCC2)N(C)C3=O)cc1OC` (stereo not drawn), the activity change, negative = inhibition in assay [1] came out at 1.74%; in assay [2], 4.17%; in assay [3], 5.77%; in assay [4] it was 3.71%; in assay [5], 1.08%.

For the compound `CCCCN1C(=O)c2cc(C(=O)Nc3cccc(CC)c3)nn2CC1(C)C(=O)NC1CCCC1` (stereo not drawn), the activity change, negative = inhibition in assay [1] is 1.63%; in assay [2] it was 0%; in assay [3] it was -6.05%; in assay [4] it was -5.61%; in assay [5], -0.549%.

`Nc1nc(COC(=O)c2ccc([N+](=O)[O-])cc2)nc(Nc2ccccc2)n1`: the activity change, negative = inhibition was -0.715% in assay [1]; -6.32% in assay [2]; -6.82% in assay [3]; -19.2% in assay [4]; -14.4% in assay [5].

Consider `O=C(c1ccc(Cl)s1)N1CCC(n2cnnc2-c2ccccc2)C1` (stereo not drawn), for which the activity change, negative = inhibition was -10.1% in assay [1]; -1.44% in assay [2]; -3.79% in assay [3]; -6.2% in assay [4]; -1.19% in assay [5].

Regarding `COc1ccc(CNC(=O)[C@H]2O[C@H](CCN(C)CCc3ccccc3)CC[C@@H]2O)cc1`, the activity change, negative = inhibition is -5.5% in assay [1]; -9.76% in assay [2]; -7.79% in assay [3]; -16.5% in assay [4]; -9.61% in assay [5].

`Clc1ccc(-c2nnn3c2nc(NCC2CCCO2)c2ccccc23)cc1` (stereo not drawn): the activity change, negative = inhibition was -1.99% in assay [1]; 4.35% in assay [2]; 3.1% in assay [3]; 8.79% in assay [4]; -3.38% in assay [5].

For `Cc1nc(CNc2ncnc3ccc(-c4ccc5c(c4)OCO5)cc23)cs1`, the activity change, negative = inhibition is -25.1% in assay [2], -40.5% in assay [4] and -32% in assay [5].

`CCN(C(=O)CCC(=O)N1CCC(C)(c2noc(C)n2)CC1)c1ccccc1`: the activity change, negative = inhibition in assay [1] came out at 1.64%; in assay [2], 3.93%; in assay [3], 1.45%; in assay [4] it was 0.1%; in assay [5], 3.39%.

For the compound `Cc1noc(C)c1S(=O)(=O)N1CC(n2cnnc2C2CCCO2)C1` (stereo not drawn), the activity change, negative = inhibition in assay [1] was 0.44%; in assay [2] it was 5.43%; in assay [3], 1.71%; in assay [4], -1%; in assay [5], 16.7%.

For `COc1ccc(CCNc2nc3c(-c4ccccc4)nnn3c3ccccc23)cc1OC`, the activity change, negative = inhibition in assay [1] was -1.91%; in assay [2], 0.765%; in assay [3], 5.44%; in assay [4] it was -1.52%; in assay [5], 0.235%.

`CC(=O)OC(C)(C)/C=C/C(=O)[C@](C)(O)[C@H]1C(O)C[C@@]2(C)[C@@H]3CC=C4[C@@H](C=C(O[C@@H]5O[C@H](CO)[C@@H](O)[C@H](O)[C@H]5O)C(=O)C4(C)C)[C@]3(C)C(=O)C[C@]12C` (stereo partly drawn): the activity change, negative = inhibition in assay [1] was 1.43%; in assay [2] it was 5.96%; in assay [3] it was 14.3%; in assay [4], -6.29%; in assay [5], 9.16%.

For the compound `Cc1ccc(C(=O)Cn2nc3n(C(C)C)c(=O)c4ccc(C(=O)NCC(C)C)cc4n3c2=O)cc1`, the activity change, negative = inhibition in assay [1] was 0.517%; in assay [2], 0%; in assay [3], 4.22%; in assay [4], -3.2%; in assay [5], 3.28%.

`Cn1nnc2cc(CNC(=O)c3cccnc3)ccc21`: the activity change, negative = inhibition in assay [1] is 5.66%; in assay [2], 0.038%; in assay [3], 0.767%; in assay [4], -0.147%; in assay [5] it was 2.3%.

On to `Cc1cccc(-c2ocnc2C(=O)N2CC[C@H](CO)[C@H](NC(=O)C3CC3)C2)c1`, for which the activity change, negative = inhibition in assay [1] is 1.97%; in assay [2], -1.69%; in assay [3], 3.02%; in assay [4], -1%; in assay [5], 5.12%.

Take `Cc1ccc(CNC(=O)Cn2nc3n(CCc4ccccc4)c(=O)c4ccccc4n3c2=O)cc1`: the activity change, negative = inhibition is 5.01% in assay [1]; 1.56% in assay [2]; 8.72% in assay [3]; -2.04% in assay [4]; 1.67% in assay [5].

With `COc1ccc2nccc(C(=O)CC[C@@H]3CCN(CC#Cc4cc(F)cc(F)c4F)C[C@@H]3C(=O)O)c2c1`, the activity change, negative = inhibition in assay [1] is -20.4%; in assay [2] it was 2.87%; in assay [3], 7.14%; in assay [4], -24.1%; in assay [5], -2.44%.

Consider `COc1cccc(N2C(=O)c3cc4ccccc4n3CC2(C)C(=O)NCCC(C)C)c1` (stereo not drawn), for which the activity change, negative = inhibition is 1.97% in assay [1]; 3.87% in assay [2]; -1.85% in assay [3]; 4.97% in assay [4]; 0.4% in assay [5].

As to `CO/N=C(/C(=O)N[C@@H]1C(=O)N2C(C(=O)O)=C(Cn3nnc(C)n3)CS[C@H]12)c1csc(N)n1`, the activity change, negative = inhibition was 1.36% in assay [1]; 3.18% in assay [2]; 11.9% in assay [3]; -7.92% in assay [4]; 3.75% in assay [5].

Regarding `O=c1c2ccccc2n2c(-c3cc(Cl)ccc3O)nnc2n1Cc1ccc(F)cc1`, the activity change, negative = inhibition is -17.3% in assay [1]; -11.5% in assay [2]; -5.74% in assay [3]; -33.4% in assay [4]; -15.5% in assay [5].

As to `CCOc1ccc(N2C(=O)c3cc(C(C)(C)C)nn3CC2(C)C(=O)NCc2ccccc2)cc1` (stereo not drawn), the activity change, negative = inhibition in assay [1] is -0.663%; in assay [2], 0%; in assay [3], 0.328%; in assay [4] it was 4.77%; in assay [5], -1.06%.

Take `C=C1C(=O)O[C@@H]2/C=C(/C)CC3C=C(C[C@H](OC(=O)/C(C)=C\C)[C@@H]12)C(=O)O3` (stereo partly drawn): the activity change, negative = inhibition in assay [1] is -3.12%; in assay [2], -3.98%; in assay [3] it was 1.65%; in assay [4], -12.8%; in assay [5] it was 2.55%.

On to `CC(C)N1C(=O)C2(CCCC2)C1C(=O)Nc1ccncc1` (stereo not drawn), for which the activity change, negative = inhibition in assay [1] is -5.15%; in assay [2], -7.04%; in assay [3], -5.38%; in assay [4] it was -16.5%; in assay [5], -8.2%.

With `Cc1cc2c(s1)Nc1ccccc1N=C2N1CCN(C)CC1`, the activity change, negative = inhibition in assay [1] was 5.45%; in assay [2], 8.21%; in assay [3] it was 13.1%; in assay [4], -13.2%; in assay [5] it was 3.65%.

In the case of `CCCn1c(=O)c2cc(F)ccc2n2c(SCC(=O)Nc3ccccc3Cl)nnc12`, the activity change, negative = inhibition was -9.26% in assay [1]; 3.5% in assay [2]; 8.29% in assay [3]; -7.15% in assay [4]; 1.65% in assay [5].

As for `O=C(O)CC1CCCc2ccccc2C1O` (stereo not drawn), the activity change, negative = inhibition in assay [1] was 4.83%; in assay [2] it was 14.3%; in assay [3], 9.51%; in assay [4] it was -0.992%; in assay [5], 10.5%.

With `CC(C)CCNC(=O)C1(C)Cn2c(cc3ccccc32)C(=O)N1Cc1cccc(Br)c1` (stereo not drawn), the activity change, negative = inhibition in assay [1] is -4.96%; in assay [2], 1.63%; in assay [3], -3.79%; in assay [4], -8.74%; in assay [5] it was -5.93%.

`CC1(C(=O)Nc2ccccc2F)COCc2cnc(Nc3ccccc3)nc21` (stereo not drawn): the activity change, negative = inhibition in assay [1] is -11.2%; in assay [2], -5.85%; in assay [3], -9.07%; in assay [4], -10.8%; in assay [5], 0.015%.

For the compound `CN(Cc1ccc(-n2cccn2)cc1)CC1CCN(CCc2ccc(F)cc2)CC1`, the activity change, negative = inhibition in assay [1] was -7.63%; in assay [2] it was -10.2%; in assay [3] it was -11.9%; in assay [4] it was -21.7%; in assay [5], -20.9%.

As to `Cc1n[nH]c(C)c1CNc1cc(C2CC(O)C2)ncn1` (stereo not drawn), the activity change, negative = inhibition is -0.822% in assay [1]; -8.32% in assay [2]; 2.67% in assay [3]; -3% in assay [4]; 2.05% in assay [5].

As for `Cc1ccc(-c2nnn3c2nc(NCc2ccc(F)cc2)c2ccccc23)cc1`, the activity change, negative = inhibition in assay [1] is -1.08%; in assay [2] it was 4.56%; in assay [3], 0.836%; in assay [4], 1.36%; in assay [5], -5.37%.
